Measurements published in PubChem BioAssay AID493208 (National Center for Advancing Translational Sciences (NCATS), 2011).
About 340 (0.77%) of roughly 44,000 compounds were called active. Another 5% or so got no clear call; they are omitted. Calls follow the shape of the dose curve; as a rule, active = well fitted inhibition curve with a large enough effect; inconclusive = small, poorly fitted or top-dose-only effect; inactive = flat fitted curve, though single readings scatter. Some of the results follow.

Assay: Acumen qHTS Assay for Inhibitors of the mTORC1 Signaling Pathway in MEF (Tsc2-/-, p53-/-) Cells: Sytravon;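 also: plate controls were DMSO for no effect and rapamycin for full effect; nearly all actives have a fitted effect of over 50% in size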
Conditions: phospho-rpS6 immunofluorescence/PI, 24 h; series mostly up to 38.3 µM; activity change, negative = inhibition: at the top concentration
In short: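 Tsc2-/-, p53-/- MEFs (empty-vector stable line) in DMEM + 10% FBS were treated with compounds 24 h at 37 degree Celsius, fixed, and immunostained for phospho-rpS6 (Alexa-488) with propidium iodide counterstain. Laser-scanning cytometry gave % positive cells, normalized against 7.5 nM rapamycin and DMSO.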

Activity change, negative = inhibition, inactive:
O=C(NCc1cccs1)c1nn(-c2ccccc2F)nc1CO -11.2%
CCCCNC(=O)Cn1ncc2c(C)n(Cc3cccc(Cl)c3)c(C)c2c1=O -2.51%
CCNC(=O)c1c(NC(=O)Cc2coc3cc(C)ccc23)sc2c1CCCC2 -5.01%
CCn1c(C(=O)NCc2ccc(OC)cc2)cc2sc(Cl)cc21 -6.08%
CCn1cc(C(=O)N2CCN(c3ccccc3)CC2)c(=O)c2cc(S(=O)(=O)N3CCCC3)ccc21 -7.27%
COc1cccc(C(=O)Nc2nc3nc(C)c(C)c(=O)n3[nH]2)c1 -11%
O=C(Nc1c(O)c2ccccc2oc1=O)c1cccc(F)c1 -0.34%
CCc1ccccc1NC(=O)Cc1cn(C)c2ccccc12 -17.8%
Cc1ccc(Nc2ncnc3onc(C)c23)cc1Cl 0.561%
CCOc1ccc(S(=O)(=O)Nc2cccc(C)c2)c2cccnc12 -12.2%
Cc1cc(C)cc(NC(=O)c2ccc3c(O)c(S(=O)(=O)c4ccccc4)c(=O)[nH]c3c2)c1 -3.06%
Cc1c(Cl)cccc1NC(=O)CSc1ncc(S(=O)(=O)c2ccc(C(C)C)cc2)c(=O)[nH]1 -17.9%
COc1cc(Cl)c(C)cc1NC(=O)c1ccc(CN2C(=O)CCn3nc(C)cc32)cc1 -6.46%
COC(=O)c1ccccc1NC(=O)C1(c2cccs2)CCOCC1 -1.31%
CCCCOC(=O)c1ccc(NC(=O)Cc2coc3c(C)c(C)ccc23)cc1 -12%
Cc1ccc(OCC(=O)N(Cc2ccco2)c2ccccn2)cc1 1.27%
CCNC(=O)C1CCCN(c2nnc(C)c3c(C)n(-c4ccc(C)cc4)nc23)C1 (stereo unspecified) -3.36%
CCOC(=O)c1[nH]c(C)c(CCC(=O)NCc2cccc(C)c2)c1C 0%
CCOC(=O)c1c(C)[nH]c(C)c1S(=O)(=O)N1CCCC(C(=O)Nc2ccc(C)c(N(C)C)c2)C1 (stereo unspecified) 4.12%
CCC(=O)N1CCc2cc(CNC(=O)Nc3cc(C)ccc3C)ccc21 -0.892%
Oc1c(C(c2ccccc2Cl)N2CCOCC2)sc2nc(-c3ccco3)nn12 (stereo unspecified) -9.32%
Cc1cccc(CNC(=O)CN2C(=O)C3CCCCN3c3ccc(C(=O)N4CCCC4)cc32)c1 (stereo unspecified) 1.82%
COc1ccc(CCNS(=O)(=O)c2ccc(F)c(C(=O)Nc3ccc(Cl)cc3)c2)cc1OC -22.4%
Cc1ccc(-c2nnc(Nc3ccc(Cl)c(Cl)c3)c3ccccc23)cc1S(=O)(=O)N(C)C 0.544%
CC(=O)c1cccc(NC(=O)Cn2c(=O)oc3cc(S(=O)(=O)NC4CCCC4)ccc32)c1 -0.707%
CC(=O)c1ccc(Nc2nc3ccccc3nc2-n2nc(C)cc2C)cc1 -2.13%
CC(=O)N1CCN(c2nc3c(C)ccc(Cl)c3s2)CC1 -3.35%
COc1cccc(NC(=O)CSc2nccn2Cc2ccc3c(c2)OCO3)c1 9.86%
Cc1nc(-n2nc(C)c(Cc3ccc(Cl)cc3)c2C)sc1C(=O)N1CCCCC1C (stereo unspecified) -6.01%
Cc1ccc(C)c(Cn2c3ccccc3c3cnn(CC(=O)NCC(C)c4ccccc4)c(=O)c32)c1 (stereo unspecified) -7.03%
O=C(CSCc1ccccc1Cl)NCc1ccc(Cl)c(Cl)c1 -5.7%
CCOc1ccccc1Nc1nc(-c2ccc(C)cc2)c(CC(=O)O)s1 -16%
O=c1[nH]c2ccc(NCc3ccc(-c4ccc(Cl)cc4)o3)cc2[nH]1 -1.35%
COc1ccc(CN(C(=O)Nc2cccc(OC)c2)C2CCN(C(C)=O)CC2)cc1 -0.0914%
Cc1ccc(NC(=O)CN2C(=O)CC(c3ccc(F)cc3)=Nc3ccccc32)cc1F -3.12%
COc1ccc(OC)c(NC(=O)C(C)n2nc(C)c3c(C)n(-c4ccccc4)nc3c2=O)c1 (stereo unspecified) 0%
COc1ccc(C2c3c(oc4ccc(Cl)cc4c3=O)C(=O)N2CCCN(C)C)cc1OC (stereo unspecified) -0.182%
COc1cccc(CNC(=O)CN2C(=O)N(c3c(C)cccc3C)S(=O)(=O)c3ccccc32)c1OC 4.68%
COc1ccc2c(c1)CCc1c(C(=O)Nc3c(C)nn(Cc4ccc(Cl)cc4)c3C)noc1-2 -1.65%
COc1ccc(/C=C\c2onc(C)c2S(=O)(=O)N2CCC(C(=O)Nc3cccc(C)c3C)CC2)cc1 3.23%
CCOc1ccc(NC(=O)Cn2nnc(C(=O)NCc3cccs3)c2N)cc1 -2.2%
Cc1cccc(C)c1NC(=O)CCS(=O)(=O)c1ccc2c(c1)CC(C)N2C(=O)C1CC1 (stereo unspecified) -7.02%
Cc1ccc(-c2nc3ccccc3s2)cc1NC(=O)COc1ccccc1 -4.82%
CCOc1ccc(/C=C/c2nc(C#N)c(N3CCCCC3)o2)cc1 -4.61%
CCOC(=O)c1cccc(NC(=O)CCc2c(C)nn(-c3ccc(N4CCCC4)nn3)c2C)c1 -6.17%
Cc1ccc(OCC(=O)NCC2(N3CCOCC3)CCCCC2)cc1C -9.46%
CCCCN(CCCC)CCNC(=O)c1cn(CC)c2ccc(S(=O)(=O)N3CCc4ccccc4C3)cc2c1=O -9.04%
CCCN(CCC)CCNC(=O)CN1C(=O)COc2ccc(S(=O)(=O)N3CCC(C)CC3)cc21 11.5%
CCOC(=O)Cn1nc(-c2ccccc2)c2cnc3ccc(OCC)cc3c21 -3.41%
Cc1oc(-c2cccc(Cl)c2)nc1CN1CCC(C(=O)NCCCN2CCN(c3ccccc3F)CC2)CC1 -17%
CCOC(=O)CSc1nc2c([nH]c3ccccc32)c(=O)n1-c1ccc(OC)cc1 2.48%
O=C(CN(CCc1ccccc1)S(=O)(=O)c1ccc(Br)cc1)NCc1ccc(Cl)cc1 3.49%
CCC1CN(C(=O)C2CCN(S(=O)(=O)c3c(C)noc3/C=C/c3ccccc3F)CC2)c2cc(Cl)ccc2O1 (stereo unspecified) 5.82%
COc1ccc(N(Cc2cccs2)C(=O)c2ccc(Br)o2)cc1 -15.3%
CCc1ccc(NC(=O)CSC2=Nc3ccccc3C3=NC(CC(=O)NC4CCCCC4)C(=O)N23)cc1 (stereo unspecified) -0.216%
COc1ccc(NC(=O)C2CCCN(S(=O)(=O)c3ccc4c(c3)CCCC(=O)N4)C2)cc1OC (stereo unspecified) -1.55%
Cc1ccc2c(=O)cc(C(=O)Nc3ccc(S(=O)(=O)Nc4nc(C)cc(C)n4)cc3)oc2c1 0%
O=C(C1CCN(c2ncnc3c2nc2n3CCCCC2)CC1)N1CCN(c2ccc(F)cc2)CC1 -0.447%
CCOc1cc(C2C(C(=O)Nc3ccc(OC)cc3)=C(C)Nc3nc(SC)nn32)ccc1O (stereo unspecified) 1.6%
CCCC(=O)N1CC(=O)Nc2ccc(Cl)cc2C1c1ccccc1 (stereo unspecified) -1.34%
CCC(Sc1ncnc2sc3c(c12)CCCC3)C(=O)OC(C)C (stereo unspecified) -24.1%
